T1: human IL-2Rαβγ (human, UniProt P01589 22-272; P14784 27-551; P31785 23-369)
T1 sequence (looked up) 1: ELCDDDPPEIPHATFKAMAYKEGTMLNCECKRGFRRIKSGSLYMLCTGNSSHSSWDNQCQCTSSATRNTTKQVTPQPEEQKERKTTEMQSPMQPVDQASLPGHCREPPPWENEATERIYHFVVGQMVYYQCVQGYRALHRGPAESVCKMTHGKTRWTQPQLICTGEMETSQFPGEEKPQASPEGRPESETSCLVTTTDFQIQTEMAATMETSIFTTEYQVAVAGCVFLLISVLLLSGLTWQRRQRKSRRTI
T1 sequence (looked up) 2: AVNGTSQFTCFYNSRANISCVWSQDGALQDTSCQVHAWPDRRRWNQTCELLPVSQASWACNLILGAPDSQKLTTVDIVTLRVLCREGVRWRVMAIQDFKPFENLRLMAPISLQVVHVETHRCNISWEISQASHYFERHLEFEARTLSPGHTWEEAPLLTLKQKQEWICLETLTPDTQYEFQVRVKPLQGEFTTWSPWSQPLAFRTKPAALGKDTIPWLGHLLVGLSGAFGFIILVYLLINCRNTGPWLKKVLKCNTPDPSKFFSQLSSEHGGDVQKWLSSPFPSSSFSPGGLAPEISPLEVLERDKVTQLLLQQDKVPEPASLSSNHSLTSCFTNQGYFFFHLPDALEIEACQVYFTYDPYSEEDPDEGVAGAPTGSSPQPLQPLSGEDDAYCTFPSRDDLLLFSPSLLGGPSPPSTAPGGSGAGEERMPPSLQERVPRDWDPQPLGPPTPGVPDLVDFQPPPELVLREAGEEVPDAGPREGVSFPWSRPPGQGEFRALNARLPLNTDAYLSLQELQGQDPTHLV
T1 sequence (looked up) 3: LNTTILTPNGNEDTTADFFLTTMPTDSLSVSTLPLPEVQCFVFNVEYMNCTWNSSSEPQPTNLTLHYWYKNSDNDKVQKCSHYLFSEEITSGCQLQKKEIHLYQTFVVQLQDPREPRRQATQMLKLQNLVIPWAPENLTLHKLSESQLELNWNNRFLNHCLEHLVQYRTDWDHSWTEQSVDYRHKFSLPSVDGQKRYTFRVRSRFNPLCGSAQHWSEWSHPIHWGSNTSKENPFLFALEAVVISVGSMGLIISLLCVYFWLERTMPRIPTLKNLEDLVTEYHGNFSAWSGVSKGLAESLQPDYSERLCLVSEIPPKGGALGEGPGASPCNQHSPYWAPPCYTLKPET

B1: 8His-T7(oAzZK)-PEG4 (ligand)
chain: not shown
modifications: 7: (oAzZK)-PEG4 (DBCO-PEG4-FLAG DYKDDDDK)
B2: 8His-R81(oAzZK)-PEG4 (ligand)
chain: not shown
modifications: 81: (oAzZK)-PEG4 (DBCO-PEG4-FLAG DYKDDDDK)
B3: 8His-S6(oAzZK)-PEG4 (ligand)
chain: not shown
modifications: 6: (oAzZK)-PEG4 (DBCO-PEG4-FLAG DYKDDDDK)
B4: 8His-E100(oAzZK)-PEG4 (ligand)
chain: not shown
modifications: 100: (oAzZK)-PEG4 (DBCO-PEG4-FLAG DYKDDDDK)
B5: 8His-E60(oAzZK)-PEG4 (ligand)
chain: not shown
modifications: 60: (oAzZK)-PEG4 (DBCO-PEG4-FLAG DYKDDDDK)
B6: 8His-L94(oAzZK)-PEG4 (ligand)
chain: not shown
modifications: 94: (oAzZK)-PEG4 (DBCO-PEG4-FLAG DYKDDDDK)
B7: 8His-S4(oAzZK)-PEG4 (ligand)
chain: not shown
modifications: 4: (oAzZK)-PEG4 (DBCO-PEG4-FLAG DYKDDDDK)
B8: 8His-F78(oAzZK)-PEG4 (ligand)
chain: not shown
modifications: 78: (oAzZK)-PEG4 (DBCO-PEG4-FLAG DYKDDDDK)
B9: 8His-S5(oAzZK)-PEG4 (ligand)
chain: not shown
modifications: 5: (oAzZK)-PEG4 (DBCO-PEG4-FLAG DYKDDDDK)
B10: 8His-T101(oAzZK)-PEG4 (ligand)
chain: not shown
modifications: 101: (oAzZK)-PEG4 (DBCO-PEG4-FLAG DYKDDDDK)
B11: 8His-H79(oAzZK)-PEG4 (ligand)
chain: not shown
modifications: 79: (oAzZK)-PEG4 (DBCO-PEG4-FLAG DYKDDDDK)
B12: 8His-Q126(oAzZK)-PEG4 (ligand)
chain: not shown
modifications: 126: (oAzZK)-PEG4 (DBCO-PEG4-FLAG DYKDDDDK)
B13: 8His-S99(oAzZK)-PEG4 (ligand)
chain: not shown
modifications: 99: (oAzZK)-PEG4 (DBCO-PEG4-FLAG DYKDDDDK)
B14: 8His-IL-2 (ligand)
chain: not shown

Each binder was assayed against T1, human IL-2Rαβγ (assay: cell-based or functional assay).
With B1 the “Standardized EC50 ratio value” was under 5.
In the case of B2, the “Standardized EC50 ratio value” is reported as under 5.
For B3, the “Standardized EC50 ratio value” was under 5.
In the case of B4, the “Standardized EC50 ratio value” is reported as under 5.
B5 was tested, and the “Standardized EC50 ratio value” was under 5.
In the case of B6, the “Standardized EC50 ratio value” is reported as under 5.
In the case of B7, the “Standardized EC50 ratio value” is reported as under 5.
With B8 the “Standardized EC50 ratio value” was under 5.
With B9 the “Standardized EC50 ratio value” was under 5.
B10 was tested, and the “Standardized EC50 ratio value” was under 5.
In the case of B11, the “Standardized EC50 ratio value” is reported as under 5.
B12 was tested, and the “Standardized EC50 ratio value” was under 5.
With B13 the “Standardized EC50 ratio value” was under 5.

What follows are binders tested against T2, human CD25 ECD-Fc-Avitag (human) (assay: SPR (Biacore T-100), receptor-Fc captured by anti-human Fc, IL-2 as analyte, steady state model).
T2 construct: Extracellular region of human CD25 fused to human IgG1 Fc with C-terminal Avitag; also called hCD25ECD-Fc
For B14, the Kd was 15 nM.

What follows are binders tested against T3, human CD122 ECD-Fc-Avitag-8His / human CD132 ECD-Fc-FLAG (human) (assay: SPR (Biacore T-100), receptor-Fc captured by anti-human Fc, IL-2 as analyte, 1:1 binding model).
T3 construct: in the assay a heterodimer of the two chains; also called hIL-2RβγECD-Fc; IL-2Rβγ ECD-Fc
B14 was tested, and the Kd was 0.209 nM.
